From PubChem BioAssay AID504333 (National Center for Advancing Translational Sciences (NCATS), 2011)
About 16,000 (4.4%) of roughly 360,000 compounds were called active. Inconclusive means that the source gave no clear call. Such entries were picked first, then a sample of the others. Calls come from the whole dose curve; as a rule, active = well fitted inhibition curve with a large enough effect; inconclusive = small, poorly fitted or top-dose-only effect; inactive = no such curve, though single readings can be large or run the other way. A potency beside an inconclusive call is a rough fit, not a confirmed value.

target: Bromodomain adjacent to zinc finger domain protein 2B (Homo sapiens) (UniProt Q9UIF8); assay: qHTS Assay for Inhibitors of BAZ2B; settings: AlphaScreen BAZ2B-H3K14Ac peptide displacement; activity change, negative = inhibition: at 114 µM (top of the series) unless noted; note: nearly all actives have a fitted effect of over 60% in size
Chain of UniProt Q9UIF8 (Q9UIF8 whole entry, looked up, the tested form may be a part): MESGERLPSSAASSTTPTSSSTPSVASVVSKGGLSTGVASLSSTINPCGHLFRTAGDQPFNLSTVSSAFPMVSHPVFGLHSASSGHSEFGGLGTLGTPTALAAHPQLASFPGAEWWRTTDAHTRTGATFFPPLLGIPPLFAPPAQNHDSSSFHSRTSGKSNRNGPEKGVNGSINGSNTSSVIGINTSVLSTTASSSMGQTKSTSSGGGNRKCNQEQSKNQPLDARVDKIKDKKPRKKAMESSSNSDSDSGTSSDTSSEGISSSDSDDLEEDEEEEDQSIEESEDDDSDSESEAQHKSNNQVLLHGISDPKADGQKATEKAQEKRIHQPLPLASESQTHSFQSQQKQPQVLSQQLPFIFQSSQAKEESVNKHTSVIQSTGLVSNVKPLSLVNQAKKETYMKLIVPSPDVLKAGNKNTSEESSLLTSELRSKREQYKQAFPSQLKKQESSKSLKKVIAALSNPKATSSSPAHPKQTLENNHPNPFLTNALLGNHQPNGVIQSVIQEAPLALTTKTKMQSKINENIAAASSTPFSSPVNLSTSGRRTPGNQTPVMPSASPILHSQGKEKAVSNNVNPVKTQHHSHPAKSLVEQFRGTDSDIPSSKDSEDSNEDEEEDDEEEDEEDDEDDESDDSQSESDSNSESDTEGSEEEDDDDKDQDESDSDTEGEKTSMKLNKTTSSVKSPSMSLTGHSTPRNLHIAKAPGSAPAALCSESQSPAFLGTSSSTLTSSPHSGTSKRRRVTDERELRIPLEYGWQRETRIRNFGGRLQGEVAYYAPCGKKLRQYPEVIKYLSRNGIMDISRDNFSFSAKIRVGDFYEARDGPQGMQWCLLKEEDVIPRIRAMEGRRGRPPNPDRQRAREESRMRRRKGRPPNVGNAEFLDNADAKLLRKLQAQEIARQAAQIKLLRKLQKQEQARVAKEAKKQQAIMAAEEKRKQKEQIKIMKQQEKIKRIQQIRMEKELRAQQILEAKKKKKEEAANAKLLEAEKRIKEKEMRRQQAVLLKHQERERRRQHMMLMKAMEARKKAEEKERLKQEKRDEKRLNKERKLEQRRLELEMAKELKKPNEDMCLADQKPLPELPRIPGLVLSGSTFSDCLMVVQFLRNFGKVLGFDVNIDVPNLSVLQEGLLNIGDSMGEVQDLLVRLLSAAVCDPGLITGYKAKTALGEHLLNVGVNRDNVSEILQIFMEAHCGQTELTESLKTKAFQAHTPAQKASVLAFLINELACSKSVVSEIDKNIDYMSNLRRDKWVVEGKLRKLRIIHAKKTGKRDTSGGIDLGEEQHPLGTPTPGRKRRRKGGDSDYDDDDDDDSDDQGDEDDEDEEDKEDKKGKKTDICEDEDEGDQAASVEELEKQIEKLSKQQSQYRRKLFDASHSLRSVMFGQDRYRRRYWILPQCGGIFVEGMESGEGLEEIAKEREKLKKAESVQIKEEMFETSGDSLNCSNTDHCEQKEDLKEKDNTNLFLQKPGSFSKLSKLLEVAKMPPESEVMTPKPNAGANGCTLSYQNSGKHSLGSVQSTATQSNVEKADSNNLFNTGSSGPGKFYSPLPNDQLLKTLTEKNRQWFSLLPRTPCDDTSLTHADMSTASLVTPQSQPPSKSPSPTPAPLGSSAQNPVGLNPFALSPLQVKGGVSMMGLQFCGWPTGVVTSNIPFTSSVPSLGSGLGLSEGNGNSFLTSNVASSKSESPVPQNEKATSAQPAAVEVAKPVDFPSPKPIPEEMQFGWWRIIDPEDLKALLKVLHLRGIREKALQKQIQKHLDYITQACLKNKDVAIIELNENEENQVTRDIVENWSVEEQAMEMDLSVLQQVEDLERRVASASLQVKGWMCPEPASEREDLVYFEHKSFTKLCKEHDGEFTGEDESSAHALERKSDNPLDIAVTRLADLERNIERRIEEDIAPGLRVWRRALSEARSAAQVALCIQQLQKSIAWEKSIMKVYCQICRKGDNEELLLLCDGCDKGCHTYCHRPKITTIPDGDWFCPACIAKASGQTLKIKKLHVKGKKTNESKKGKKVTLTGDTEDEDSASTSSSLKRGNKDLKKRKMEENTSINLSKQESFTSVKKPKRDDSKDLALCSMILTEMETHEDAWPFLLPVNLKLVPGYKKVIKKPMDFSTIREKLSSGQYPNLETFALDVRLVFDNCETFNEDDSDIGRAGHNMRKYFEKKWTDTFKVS
Outline: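 Compounds, titrated to a top concentration of 110 uM, were incubated 30 min at room temperature with preformed BAZ2B/acetyl-K14 H3 peptide complex (50 nM each). Proximity signal was measured by AlphaScreen after 20 min with beads.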
% is set by controls: 0 for no effect and ±100 for the full control effect; potency is the fitted concentration of half-maximal effect; tags give direction and shape of the fitted curve.

Row | SMILES | Potency | activity change, negative = inhibition
1 | COc1ccc(OC)c(-c2csc(NC(=O)CSCc3c(C)noc3C)n2)c1 | inconclusive: 79.4 µM [inhibitor, single point] | –
2 | O=C(CN(c1ccc(Cl)cc1)S(=O)(=O)c1ccccc1)N/N=C/c1ccco1 | inconclusive: 44.7 µM [inhibitor, partial curve] | –
3 | CC(=O)Nc1ccc(S(=O)(=O)NCCNc2ccccc2[N+](=O)[O-])cc1 | inconclusive: 79.4 µM [inhibitor, single point] | –
4 | N#CC1=C(N)Oc2ccc3ccc(O)cc3c2C1c1ccsc1 (stereo not given) | inconclusive: 79.4 µM [inhibitor, single point] | –
5 | CCOCCCNC(=O)c1[nH]c2cc(OC)ccc2c1Sc1ccccc1 | – | inactive: -13.7%
6 | COc1cc2c(cc1OC)CN(CC(=O)Nc1ccc(F)cc1)C(C(=O)O)C2 (stereo not given) | active: 79.4 µM | –
7 | Cc1ccc2c(c1)-c1c(c(C(=O)NCCc3ccccc3)nn1C)CS2 | – | inactive: -9.66%
8 | CN(C)S(=O)(=O)c1cc(NC(=O)CNCCN2CCOCC2)ccc1Cl | active: 50.1 µM | –
9 | COC(=O)Cc1c(C)[nH]n(-c2cc(Cl)cc(Cl)c2)c1=O | inconclusive: 70.8 µM [inhibitor, single point] | –
10 | Clc1ccc(C2=CSC3=NCCN23)cc1Cl | inconclusive: 70.8 µM [inhibitor, single point] | –
11 | CN(C(=O)c1cn2ccccc2n1)c1c(N)n(Cc2ccccc2)c(=O)[nH]c1=O | inconclusive: 89.1 µM [inhibitor, single point] | –
12 | O=C(OCC(=O)N1c2ccccc2Sc2ccccc21)C1CC(=O)N(Cc2ccco2)C1 (stereo not given) | inconclusive: 79.4 µM [inhibitor, single point] | –
13 | CC(C)CCNC(=O)c1cccc(-n2cnc3cccnc32)c1 | – | inactive: -0.77%
14 | COc1cc(S(=O)(=O)NCCCn2ccnc2)ccc1Cl | inconclusive: 79.4 µM [inhibitor, single point] | –
15 | COc1ccc(NC(=O)CSc2nnc(C)n2N)cc1S(=O)(=O)N1CCCCC1 | – | inactive: 2.66%
16 | Brc1cccc(OCCN2CCc3ccccc3C2)c1 | – | inactive: -3.28%
17 | O=c1c2c([N+](=O)[O-])cc([N+](=O)[O-])cc2sn1Cc1ccccc1 | active: 3.55 µM | –
18 | COc1ccc(S(=O)(=O)N2CCOCC2)cc1NC(=O)c1cccs1 | – | inactive: 3.36%
19 | O=C1NC(c2cc(Cl)cc([N+](=O)[O-])c2O)Nc2ccccc21 (stereo not given) | active: 39.8 µM | –
20 | CN(CCCCOc1ccc(F)cc1)Cc1ccccc1 | active: 79.4 µM | –
21 | c1ccc2c(c1)ncn2Cc1nnc2sc(-c3ccc4c(c3)OCO4)nn12 | inconclusive: 89.1 µM [inhibitor, single point] | –
22 | Cc1cc2nc(CCl)cc(=O)n2[nH]1 | inconclusive: 79.4 µM [inhibitor, single point] | –
23 | Cc1nnc(SCC(=O)NCc2ccc(N(C)C)cc2)c2nn(-c3ccccc3)c(C)c12 | inconclusive: 79.4 µM [inhibitor, partial curve] | –
24 | CCN(CC)c1ccc(S(=O)(=O)N2CCCCC2)cc1NC(=O)C1CCC1 | inconclusive: 89.1 µM [inhibitor, single point] | –
25 | CCCCNC(=O)c1sc(=S)n2c1[nH]c(=O)c1ccc(C(=O)NCCc3ccc(OC)c(OC)c3)cc12 | inconclusive: 56.2 µM [inhibitor, partial curve, poor fit] | –

Row | SMILES | Potency | activity change, negative = inhibition
26 | CN1CCc2nc3ccc(Cl)cc3c(-c3ccccc3Cl)c2C1 | inconclusive: 79.4 µM [inhibitor, single point] | –
27 | CN(CC(=O)O)Cc1nc2ccccc2[nH]1 | active: 20 µM | –
28 | O=C(NC1CC(=O)N(c2ccc(F)cc2)C1)C1CCCCC1 (stereo not given) | – | inactive: 0.429%
29 | Cc1onc(-c2ccccc2)c1C(=O)N/N=C/c1cn(C)c2ccccc12 | inconclusive: 56.2 µM [inhibitor, partial curve] | –
30 | CCOc1cc(CNCC(O)c2ccccc2)cc(Cl)c1OC (stereo not given) | – | inactive: -11.6%
31 | Cc1ccc(OCC(=O)N2CCC(N3CCCCCC3)CC2)cc1 | active: 56.2 µM | –
32 | COc1ccc(N2CCN(CC(O)COc3ccc(C(C)C)c(C)c3)CC2)cc1 (stereo not given) | – | inactive: -38.3%
33 | COCc1nnc(NC(=O)c2ccc(S(=O)(=O)N(C)c3ccccc3)cc2)o1 | inconclusive: 89.1 µM [inhibitor, single point] | –
34 | O=C(Nc1ccc(N2CCCC2)cc1)c1cccc(F)c1 | inconclusive: 28.2 µM [inhibitor, partial curve] | –
35 | CC1(C)CC(=O)C(C(=O)Cc2ccccc2[N+](=O)[O-])C(=O)C1 | inconclusive: 89.1 µM [inhibitor, single point] | –
36 | Cc1ccc(CN2CC(C(=O)Nc3cccc(S(=O)(=O)N4CCCCC4)c3)CC2=O)cc1 (stereo not given) | inconclusive: 44.7 µM [inhibitor, partial curve] | –
37 | O=C(Nc1ccccc1C(=O)O)c1cncc(Br)c1 | inconclusive: 89.1 µM [inhibitor, single point] | –
38 | NC1=NC(=Nc2ccc(Br)cc2)c2ccccc21 | – | inactive: -27.1%
39 | Cc1cc(Cl)cc(Cl)c1OCCOCCN(C)C | inconclusive: 56.2 µM [inhibitor, partial curve] | –
40 | COc1ccc(N2Cc3ccccc3C2=NC(=O)c2cccc([N+](=O)[O-])c2)cc1 | inconclusive: 70.8 µM [inhibitor, single point] | –
41 | COc1ccc(N=Nc2nc3cc(Br)c(Br)cc3n2C)c(OC)c1 | active: 35.5 µM | –
42 | O=C(NC1=NCCS1)C1COc2ccccc2O1 (stereo not given) | inconclusive: 89.1 µM [inhibitor, single point] | –
43 | COc1cccc([C@@H]2Nc3ccc(C(=O)O)cc3[C@@H]3C=CC[C@@H]32)c1OC | – | inactive: -3.89%
44 | Cc1ccc2c(=O)cc(C(=O)Nc3ccc(S(=O)(=O)Nc4onc(C)c4C)cc3)oc2c1 | inactive | –
45 | Cc1csc(=Nc2cccnc2)n1Cc1ccco1 | active: 44.7 µM | –
46 | C#CCSc1nnc(-c2ccc([N+](=O)[O-])cc2)o1 | – | inactive: -30.8%
47 | N#Cc1nc(-c2cccs2)oc1NCc1ccccc1Cl | inconclusive: 28.2 µM [inhibitor, full curve, poor fit] | –
48 | Cc1nn(C)cc1CN(C)C(=O)c1cc(COc2ccc(F)cc2F)on1 | – | inactive: 0.992%
49 | CCCCCNS(=O)(=O)c1ccc(N2CCCCS2(=O)=O)cc1 | – | inactive: -7.49%
50 | O=C(O)Cn1nc(C(F)(F)F)c2c1CCC2 | inconclusive: 89.1 µM [inhibitor, single point] | –

Row | SMILES | Potency | activity change, negative = inhibition
51 | COc1ccc(/C=N\Nc2ccccc2[N+](=O)[O-])c(C(=O)O)c1OC | inconclusive: 44.7 µM [inhibitor, partial curve] | –
52 | CCOc1cc(C2NC(=O)c3c(sc4c3CCN(C)C4)N2)ccc1OC(=O)c1ccccc1Cl (stereo not given) | – | inactive: 31%
53 | COc1ccccc1/C=N/n1cnnc1 | – | inactive: -2.25%
54 | COc1ccc(-c2[nH]c(-c3ccccc3)nc2SCC(=O)Nc2ccc3c(c2)OCCO3)cc1 | inconclusive: 25.1 µM [inhibitor, full curve] | –
55 | CCn1c2ccc(C)cc2c2nc3cc(C(=O)O)ccc3nc21 | – | inactive: 10.2%
56 | COc1ccc(S(=O)(=O)n2nc(C)c(S(=O)(=O)N3CCOCC3)c2C)cc1 | inconclusive: 79.4 µM [inhibitor, single point] | –
57 | COc1ccc(-c2cn[nH]c2-c2ccc(OCc3ccc([N+](=O)[O-])cc3)cc2O)cc1OC | – | inactive: -28.4%
58 | O=C(N/N=C/c1ccc(O)cc1O)c1ccncc1 | active: 31.6 µM | –
59 | Cc1noc(/C=C/N(C)C)c1S(=O)(=O)N1CCCC(C(=O)Nc2ccccc2F)C1 (stereo not given) | inconclusive: 39.8 µM [inhibitor, full curve, poor fit] | –
60 | CCOc1ccc(NC(=O)c2cnn(-c3ccc(C)c(Cl)c3)c2C2CCNCC2)cc1 | – | inactive: 1.12% [at 57.1 µM]
61 | CN(CCc1cn[nH]c1)Cc1nc(Cc2ccccc2F)no1 | – | inactive: -4.19%
62 | Cc1ccc(NC(=O)CCn2cccc2)cc1C | inconclusive: 79.4 µM [inhibitor, single point] | –
63 | CCC(C)c1ccc(OCCCCN2CCOCC2)cc1 (stereo not given) | active: 50.1 µM | –
64 | Cc1ccc(CNC(=O)C2c3ccccc3C(=O)N3CCc4ccccc4C23)o1 (stereo not given) | inconclusive: 89.1 µM [inhibitor, single point] | –
65 | CN(C)c1ccc(C(=S)N2CCN(S(=O)(=O)c3ccccc3)CC2)cc1 | inconclusive: 25.1 µM [inhibitor, single point] | –
66 | O=C(NCCN1CCOCC1)c1cn(-c2ccccc2)nc1-c1cccs1 | inconclusive: 35.5 µM [inhibitor, single point] | –
67 | O=C(C1=C(O)C(=O)N(CCN2CCOCC2)C1c1ccco1)c1cc2ccccc2o1 (stereo not given) | inconclusive: 50.1 µM [inhibitor, partial curve] | –
68 | N#Cc1c(-c2ccc(F)cc2)cc(-c2ccccc2)nc1SCC(=O)NCC(=O)O | active: 50.1 µM | –
69 | COc1ccc(/C=N/n2c(-c3ccc(C)cc3)n[nH]c2=S)cc1OC | – | inactive: -6.25%
70 | Cn1c(C(=O)N2CCCC(C(=O)NCc3ccc4c(c3)OCO4)C2)cc2sccc21 (stereo not given) | inconclusive: 50.1 µM [inhibitor, partial curve] | –
71 | COc1ccc(S(=O)(=O)O/N=C2\CCCc3ccccc32)cc1 | inconclusive: 100 µM [inhibitor, single point] | –
72 | Cc1nnc(SCc2ccccc2Cl)c2cc3sccc3n12 | inconclusive: 89.1 µM [inhibitor, single point] | –
73 | O=C1/C(=C\c2ccc(O)cc2)SC(=S)N1c1cccnc1 | inconclusive: 79.4 µM [inhibitor, partial curve] | –
74 | CC1CCC(NC(=O)C(NC(=O)c2ccccc2)C(C)C)CC1 (stereo not given) | – | inactive: 23.8%
75 | Cc1sc2ncnc(N3CCN(S(=O)(=O)c4ccccc4)CC3)c2c1C | inconclusive: 79.4 µM [inhibitor, partial curve] | –
